Test results taken from patent US5026836A, “6-sulfenamide, 6-sulfinamide and 6-sulfonamide purines, purine nucleosides, purine nucleotides, pharmaceutical compositions, and processes of making” (priority 1988, dated 1991).
The name of at least one read-out is uncertain.

Columns and labels:
L1210 cells [1] = experiment: L1210 cells surviving treatment (% of original inoculum); assay type: in vivo, mouse; settings: single QD day 1 ip
Description: (§1) Values below 25% are considered capable of producing effective therapy, those below 10% are considered good and those below 5% are considered very good. This expresses the percent of the cells which survived treatment based upon the original cells in the inoculum. Those tests expressed as increases in life span (% ILS) indicate the increased life span of the drug treated group compared to a control group.
As an indicator of reproducible activity, compounds of the invention and other known cancer chemotherapeutic agents were screened against L1210 lymphoid leukemia in vivo utilizing the mouse as a test species. Normal NCI protocols for this test require 10^5 seed cells of the L1210 cell line. However for the purposes of tests with the L1210 cell line in testing the compounds of the invention for antitumor activity, a log greater, i.e. 10^6 cells were utilized.
Tables 2-a and 2-b illustrate a dose response for Compound 19 against L1210 inoculated mice expressed as both increased life span compared to control and as the number of cells of the original inoculum surviving drug treatment. As is evident from the various regimens of drug treatment shown in Tables 2-a and 2-b, effective therapeutic effects are noted and a dose response to Compound 19 is evident. […] Cytosine Arabinoside must be given every three hours. Test results are given utilizing standard protocols based on mean survival time and are expressed as T/C percentages (treated animals/control animals).

L1210 cells [2] = experiment: Life span of BDF1 mice inoculated ip with 10^6 L1210 leukemia cells; assay type: in vivo, mouse; settings: single QD day 1 ip
Method: As illustrative examples of use of the compounds of the invention the following examples are given. […] These standard tests utilize protocols developed under the auspices of the Developmental Therapeutics Program, Division of Cancer Treatment, National Cancer Institute, Bethesda, Md., U.S.A. Except as otherwise indicated the tests conform to these protocols and are evaluated utilizing criteria defined by the protocols.
as §1
As an indicator of reproducible activity, compounds of the invention and other known cancer chemotherapeutic agents were screened against L1210 lymphoid leukemia in vivo utilizing the mouse as a test species. Normal NCI protocols for this test require 10^5 seed cells of the L1210 cell line.
Cytosine Arabinoside must be given every three hours.
Mice were inoculated intraperitoneally on day 0 with a million cells of murine leukemia L1210. Drug was given qd days 1, 4 and 7. Increased life span is the mean increase in the treated group presented as a percentage of the mean life span of control mice.
Mice were inoculated intraperitoneally on day 0 with a million cells of murine leukemia L1210. Drugs were given qd days 1, 3, 5 and 7. Increased life span is presented as a percentage of the mean life span of control mice.

SMILES	Cells surviving treatment (% of day 0 innoc.) (L1210 cells [1]; DMSO vehicle)	Cells surviving treatment (% of day 0 innoc.) (L1210 cells [1]; NaOH vehicle)	% ILS (L1210 cells [2])	Cells surviving treatment (% of day 0 innoc.) (L1210 cells [1])
NSc1nc(N)nc2nc[nH]c12 [Compound 2, 2-Aminopurine-6-sulfenamide]	0.8%	2.0%	–	–
NSc1ncnc2c1ncn2[C@@H]1O[C@H](CO)[C@@H](O)[C@H]1O [Compound 6, 9-β-D-Ribofuranosyl-9H-purine-6-sulfenamide]	–	–	67%	2.8%
NS(=O)(=O)c1ncnc2c1ncn2[C@@H]1O[C@H](CO)[C@@H](O)[C@H]1O [Compound 8, 9-β-D-Ribofuranosyl-9H-purine-6-sulfonamide]	–	–	43%	6.4%
NS(=O)(=O)c1ncnc2c1ncn2[C@@H]1O[C@H](CO)[C@@H](O)[C@@H]1O [Compound 12, 9-β-D-Arabinofuranosyl-9H-purine-6-sulfonamide]	–	–	39%	13%
NSc1ncnc2c1ncn2[C@H]1C[C@H](O)[C@@H](CO)O1 [Compound 14, 9-(2-Deoxy-β-D-erythro-pentofuranosyl)-9H-purine-6-sulfenamide]	–	–	–	1.0%
NS(=O)(=O)c1ncnc2c1ncn2[C@H]1C[C@H](O)[C@@H](CO)O1 [Compound 16, 9-(2-Deoxy-β-D-erythro-pentofuranosYl)-9H-purine-6-sulfonamide]	–	–	69%	1.0%
NSc1nc(N)nc2c1ncn2[C@@H]1O[C@H](CO)[C@@H](O)[C@H]1O [Compound 18, 2-amino-9-β-D-ribofuranosyl-9H-purine-6-sulfenamide]	–	–	–	0.3%
Nc1nc(S(N)(=O)=O)c2ncn([C@@H]3O[C@H](CO)[C@@H](O)[C@H]3O)c2n1 [Compound 20, 2-amino-9-β-D-ribofuranosyl-9H-purine-6-sulfonamide]	–	–	28%	40%
NSc1nc(N)nc2c1ncn2[C@H]1C[C@H](O)[C@@H](CO)O1 [Compound 22, 2-Amino-9-(2-deoxy-β-D-erythro-pentofuranosyl)-9H-purine-6-sulfenamide]	–	–	47%	6.0%
Nc1nc([S+](N)[O-])c2ncn([C@H]3C[C@H](O)[C@@H](CO)O3)c2n1 (stereo partly drawn) [Compound 23, 2-amino-9-(2-deoxy-β-D-erythro-pentofuranosyl)-9H-purine-6-sulfinamide]	–	–	59%	2.0%
Nc1nc(S(N)(=O)=O)c2ncn([C@H]3C[C@H](O)[C@@H](CO)O3)c2n1 [Compound 24, 2-Amino-9-(2-deoxy-β-D-erythro-pentofuranosyl)-9H-purine-6-sulfonamide]	–	–	34%	17%
NSc1nc(N)nc2c1ccn2[C@H]1C[C@H](O)[C@@H](CO)O1 [Compound 38, 2-Amino-7-(2-deoxy-β-D-erythro-pentofuranosyl)pyrrolo[2,3-d]pyrimidine-4-sulfenamide]	–	–	29%	27%
